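96-well plates; 48 h exposure; 5 concentrations. Endpoints by linear interpolation between flanking doses. Not reached: highest tested concentration assigned. The concentration for 50% growth inhibition is given as GI50. TGI is the concentration that stops growth completely.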
system: NCI-H322M lung; test: DTP human tumour cell line panel, 48 h

Structure (SMILES)	TGI [µM]	GI50 [µM]
CC(NC(C#N)CC12CC3CC(CC(C3)C1)C2)c1ccccc1 (configuration not stated)	> 100	–
N#Cc1ccc2c(c1)C(=O)c1c-2n(CCCN)c(=O)c2cc([N+](=O)[O-])ccc12	2.75	0.999
COc1ccccc1-c1cc(=O)c2ccc(OC)c(OC)c2o1	> 100	–
C=C1C(=O)O[C@H]2[C@H]1CC/C(COC(=O)c1ccccc1)=C\CC[C@@]1(C)O[C@@H]21	12.5	3.31
CSc1nc2c(=O)n(-c3ccccc3)c(=S)n(-c3ccccc3)c2s1	> 100	–
C=CCn1cc(C(=O)NC(=O)NCCCCCOC(=O)CCCCCCCCCCC(=O)OCCCCCNC(=O)NC(=O)c2cn(CC=C)c(=O)n(C)c2=O)c(=O)n(C)c1=O	> 100	–
COc1ccccc1NC(=O)O/N=C(/Cl)C(C)C	26.1	–
Cc1ccc(Sc2sc(-c3ccccc3)nc2[P+](c2ccccc2)(c2ccccc2)c2ccccc2)cc1	1.25	0.342
Cn1cnc([N+](=O)[O-])c1Sc1nnnn1-c1ccccc1	> 100	–
OCc1ccc(N(CCN2CCCC2)Cc2ccc(F)cc2)cc1Cl	18	4.15
NC1=Nc2cc(OCCCN3Cc4ccccc4C3)c(OCC3CC3)cc2C12CCCC2	15.7	3.72
N#CC1CC2(C(=O)C1=O)c1ccccc1-c1ccccc12 (configuration not stated)	> 100	–
CCOc1ccc2nc(NC(NC(=O)c3cccnc3)(C(F)(F)F)C(F)(F)F)sc2c1	> 100	–
COc1cc2c(cc1OCCCC(=O)Nc1cc(C(=O)NCCCN(C)C)n(C)n1)N=CC1CCCN1C2=O (configuration not stated)	> 57.3	–
CCOC(=O)/C(=C\c1ccc[nH]1)C(=O)c1ccccc1	> 100	–
Clc1ncc(Cl)c(Cl)n1	27.3	–
N#CC1C2CCC3(CC2CCN1C(=O)c1ccccc1)OCCO3 (configuration not stated)	> 100	–
Oc1ccc(C#CCOc2ccccc2)cc1CNCCN(Cc1ccccn1)Cc1ccccn1	2.37	0.603
S=C(Nc1ccccn1)Nc1ccccc1Cl	> 100	–
O=C(OCCC12CC3CC(CC(C3)C1)C2)c1ccc(NCc2cc(O)ccc2O)cc1	22.2	–
C=CC1=C(C)C2=NC1=CC1=NC(=CC3=C(C)C4=C(O)C(C(=O)OC)C(=C5NC(=C2)C(C)C5CCC(=O)OC)C4=N3)C(CC)=C1C (configuration not stated)	> 100	–
N=c1c2c(=S)n(-c3ccccc3)c(=S)n(-c3ccccc3)c2nc(SCCN2CCOCC2)n1-c1ccccc1	5.56	–
CC1(O)CCC2(C#N)CCC1C2O (configuration not stated)	> 100	–
Nc1ncnc2c1cnn2Cc1ccc(Cl)cc1	> 100	–
CC(=O)OCC1OC(O/C=C(\CN=[N+]=[N-])C(C)=O)C(OC(C)=O)C(OC(C)=O)C1OC(C)=O (configuration not stated)	48.3	–
CCOC(=O)Cn1c(=O)c2cc(-c3ccccc3)cc3c(Cl)nc4c(OC)c(OC)cc1c4c32	> 42.9	–

Structure (SMILES)	TGI [µM]	GI50 [µM]
CCOC(=O)Nc1nc2c(C)cccc2s1	> 100	77.3
Cc1cc2cn3c4cccnc4[nH]c(=O)c3c2cc1C	3.47	1.85
C=C1C(=O)O[C@H]2[C@H]1CC/C(Cn1cc(-c3cc(C)c(C)cc3C)nn1)=C\CC[C@@]1(C)O[C@@H]21	23.6	11.1
c1ccc(C2=NCCc3cc4c(cc32)OCO4)cc1	> 100	–
CC12CCC(C(Nc3ccccn3)C1=O)C2(C)C (configuration not stated)	> 100	–
Clc1c(C(Cl)(Cl)Cl)nsc1N1CCCCC1	> 100	–
N#C/C(=C\c1ccc(C(O)P(=O)(O)O)cc1)C(N)=O (configuration not stated)	> 100	–
CCSc1nc(N)c2c(-c3ccccc3)c3c(nc2n1)CCC3	> 100	–
CC(=O)/C=C(\O)c1[nH]c(C(=O)O)cc1C1CCN(Cc2ccccc2)C1=O (configuration not stated)	66.4	–
CC(=O)O[C@H]1[C@@H](OC(C)=O)C(C)(C)/C=C/[C@H](C)C(=O)[C@@]2(OC(C)=O)C[C@@](C)(OC(C)=O)[C@H](OC(C)=O)[C@@H]2[C@H]2OC(=O)CC[C@@]2(OC(=O)c2ccccc2)[C@@H]1OCC(C)C	> 100	–
Cc1nc2ccccc2n1Cc1nnc(N)o1	> 100	–
OCC(O)C(O)C(O)/C=N/Nc1nc2ccccc2nc1-c1ccccc1 (configuration not stated)	> 100	69
CC(=O)O[C@H]1C[C@H]2C(=S)Nc3ccccc3C(=S)N2C1	> 100	–
COc1ccc2cc(C(=O)NCCCNC(=O)c3ccc4cc(OC)ccc4c3)ccc2c1	> 100	–
COc1cc2c(cn1)[nH]c1ccccc12	> 100	–
O=C(N/N=C\c1ccccc1)Nc1cccc2ccccc12	> 100	–
O=C(CC1C=CCS1(=O)=O)NCc1ccccc1 (configuration not stated)	> 100	–
C=CCN(c1cc(OC)c2[nH]cc(C)c2c1[N+](=O)[O-])S(C)(=O)=O	> 100	–
Cc1ccc(Oc2ccc([N+](=O)[O-])cc2[N+](=O)[O-])c(C)c1	> 100	–
c1ccc(-c2cc(-c3cccs3)c(-c3cccs3)o2)cc1	> 100	–
CCCCCCC(C)OC(=O)/C=C(\CC(=O)OC(C)CCCCCC)C(=O)OC(C)CCCCCC (configuration not stated)	> 100	–
C=C1C(=O)OC2CC(C)C3C=CC(=O)C3CC12 (configuration not stated)	18.9	–
COc1ccc(N(/C=C/C(=O)C(F)(F)F)CC(=O)c2ccc(Cl)c(Cl)c2)cc1	27.5	13
c1ccc(COC2(OCc3ccccc3)CC3OC2C2NN=NC32)cc1 (configuration not stated)	> 100	–
CC(C)(C)[C@H]1CCC2(OCCO2)[C@](O)(CCCO)C1	> 100	–
